According to the supplement of paper PMC4604168 (melanoma cell lines):
This is one part of the list. Many values rest on one well or one pass, so single values are uncertain.

Experiments:
Experiment in all cases: cell count relative to DMSO control; melanoma cells; higher = more viable cells
Conditions in all cases: library dose: low library concentration; 72 h
MZ2-MEL = tested on: MZ2-MEL
MeWo = tested on: MeWo
RPMI7951 = tested on: RPMI7951
RVH-421 = tested on: RVH-421
SkMel28 = tested on: SkMel28
SkMel2 = tested on: SkMel2
SkMel30 = tested on: SkMel30
SkMel5 = tested on: SkMel5
UACC257 = tested on: UACC257
UACC62 = tested on: UACC62
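Further: cell number obtained by counting DAPI-stained nuclei in high-throughput microscope images with image analysis software, screen run in 1,536-well plates.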

Row | SMILES | cell count (MZ2-MEL) | cell count (MeWo) | cell count (RPMI7951) | cell count (RVH-421) | cell count (SkMel28) | cell count (SkMel2) | cell count (SkMel30) | cell count (SkMel5) | cell count (UACC257) | cell count (UACC62)
1 | COCC[n+]1c2c(n(Cc3cnccn3)c1C)C(=O)c1ccccc1C2=O + OCCn1cc(-c2cnc3nnn(Cc4ccc5ncccc5c4)c3n2)cn1 [PF04217903] (first compound 0.0004 µM, partner dose 1 µM) | 52.8% | 107% | 84% | 136% | 93.2% | 95.1% | 99.1% | 66.7% | 93.4% | 93.2%
2 | O=C(CCCCCCC(=O)Nc1ccccc1)NO [vorinostat] + O=C(O)c1ccc(-c2c[nH]c3ncc(-c4ccccc4)cc23)cc1C1CCCC1 [GSK650394] (first compound 0.08 µM, partner dose 0.16 µM) | 97.8% | 85.3% | 99.6% | 120% | 82.1% | 90.9% | 99.5% | 105% | 96% | 68.7%
3 | OCc1c[nH]c2ccccc12 [Indole-3-carbinol] + Cc1cc(N2CCOCC2)cc2[nH]c(-c3c(NC[C@@H](O)c4cccc(Cl)c4)cc[nH]c3=O)nc12 [BMS536924] (first compound 0.8 µM, partner dose 0.2 µM) | 108% | 86.5% | 104% | 92.1% | 84.6% | 90.7% | 56.8% | 97.4% | 62.2% | 85.1%
4 | C#Cc1cccc(Nc2ncnc3cc(OCCOC)c(OCCOC)cc23)c1 [erlotinib] + Cc1cc(N2CCOCC2)cc2[nH]c(-c3c(NC[C@@H](O)c4cccc(Cl)c4)cc[nH]c3=O)nc12 [BMS536924] (first compound 0.8 µM, partner dose 0.2 µM) | 94.9% | 87.2% | 99.6% | 93.8% | 87.9% | 91.8% | 73.2% | 103% | 90.4% | 90.3%
5 | COCC[n+]1c2c(n(Cc3cnccn3)c1C)C(=O)c1ccccc1C2=O + C=CCn1c(=O)c2cnc(Nc3ccc(N4CCN(C)CC4)cc3)nc2n1-c1cccc(C(C)(C)O)n1 [MK1775] (first compound 0.0004 µM, partner dose 0.02 µM) | 37.8% | 94.5% | 78.6% | 110% | 94.2% | 81.6% | 85.3% | 58% | 68.9% | 76.8%
6 | OCc1c[nH]c2ccccc12 [Indole-3-carbinol] + O=S(=O)(c1ccccc1)N(CC(F)(F)F)c1ccc(C(O)(C(F)(F)F)C(F)(F)F)cc1 [T0901317] (first compound 0.8 µM, partner dose 1.4 µM) | 101% | 106% | 97.3% | 91.5% | 72.4% | 98.5% | 142% | 102% | 71% | 102%
7 | OCc1c[nH]c2ccccc12 [Indole-3-carbinol] + CN(NC(=O)CC(=O)NN(C)C(=S)c1ccccc1)C(=S)c1ccccc1 [STA4783] (first compound 0.8 µM, partner dose 0.006 µM) | 96.3% | 108% | 110% | 99.8% | 94.3% | 97.7% | 70.8% | 111% | 77.3% | 93.4%
8 | OCc1c[nH]c2ccccc12 [Indole-3-carbinol] + Cn1cncc1[C@@](N)(c1ccc(Cl)cc1)c1ccc2c(c1)c(-c1cccc(Cl)c1)cc(=O)n2C [tipifarnib] (first compound 0.8 µM, partner dose 0.01 µM) | 98.5% | 89.6% | 94.9% | 89.1% | 87.5% | 91.2% | 97.4% | 84.3% | 57.9% | 63.5%
9 | C#Cc1cccc(Nc2ncnc3cc(OCCOC)c(OCCOC)cc23)c1 [erlotinib] + CO[C@@H]1[C@H](N(C)C(=O)c2ccccc2)C[C@H]2O[C@]1(C)n1c3ccccc3c3c4c(c5c6ccccc6n2c5c31)C(=O)NC4 [Midostaurin] (first compound 0.8 µM, partner dose 0.08 µM) | 96.9% | 75.4% | 86.6% | 79.8% | 96.7% | 83.6% | 88.4% | 96.7% | 79.8% | 104%
10 | C#Cc1cccc(Nc2ncnc3cc(OCCOC)c(OCCOC)cc23)c1 [erlotinib] + CC(C)(C)c1cnc(CSc2cnc(NC(=O)C3CCNCC3)s2)o1 [SNS-032] (first compound 0.8 µM, partner dose 0.01 µM) | 104% | 95.9% | 92.8% | 92.4% | 108% | 105% | 91.6% | 117% | 104% | 97.7%
11 | Clc1ccc(Nc2nnc(Cc3ccncc3)c3ccccc23)cc1 [vatalanib] + COc1ccc(COc2ccc(Cc3cnc(N)nc3N)cc2OC)cc1 [GW2580] (first compound 2 µM, partner dose 1 µM) | 96.4% | 79.4% | 82.2% | 102% | 101% | 75.4% | 98.6% | 81.2% | 80.6% | 85.8%
12 | Cn1c(Nc2ccc(C(F)(F)F)cc2)nc2cc(Oc3ccnc(-c4ncc(C(F)(F)F)[nH]4)c3)ccc21 + NCC(=O)Nc1ccc(-n2nc(C(F)(F)F)cc2-c2ccc3c(ccc4ccccc43)c2)cc1 [OSU03012] (first compound 0.08 µM, partner dose 1 µM) | 81.6% | 50.9% | 68.7% | 72.7% | 61.5% | 59.7% | 37.7% | 72.7% | 48.5% | 47.4%
